Reference: PubChem BioAssay AID504832 (National Center for Advancing Translational Sciences (NCATS), 2011)
The campaign covered roughly 310,000 compounds. About 18,000 (5.8%) were called active. This list was built around the results that the source calls inconclusive (neither active nor inactive); the mix of calls is not that of the screen. The call rests on the fitted dose curve; in most records, active means well fitted inhibition curve with a large enough effect; inconclusive means small, poorly fitted or top-dose-only effect, or another doubt; inactive means no such curve, though single readings can be large or run the other way. No potency is given beside an inconclusive call; the fits are too rough.

experiment: Primary qHTS for delayed death inhibitors of the malarial parasite plastid, 48 hour incubation; settings: P. falciparum luciferase growth in erythrocytes; series mostly up to 28.7 µM; activity change, negative = inhibition: at the top concentration
How it was run: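 Luciferase-expressing P. falciparum in infected erythrocytes (2% hematocrit, 0.1% parasitemia final) in RPMI 1640/0.5% Albumax were exposed to compound for 48 hours at 37 C, 5% CO2; growth read as luminescence.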
On the % scale 0 is the no-effect control and ±100 the full control effect; potency means the concentration at half of the fitted maximal effect; tags describe the fitted curve by direction and shape.

Row | SMILES | activity change, negative = inhibition | Potency
1 | NNC(=O)c1csc(-c2ccccc2)n1 | inactive: 11.1% | 
2 | CN(C)C(=O)CCSC(SCCC(=O)O)c1cccc(/C=C/c2ccc3ccc(Cl)cc3n2)c1 (stereo not drawn) |  | inconclusive [inhibitor, single point]
3 | CC1CCCCN1C(=O)CSc1nc2ccccc2n1CC(=O)N1CCc2ccccc21 (stereo not drawn) |  | inconclusive [inhibitor, full curve, poor fit]
4 | Cc1ccc(CNC(=O)[C@H](Cc2ccccc2)NC(=O)c2ccco2)cc1 |  | inconclusive [inhibitor, single point]
5 | CCOc1ccccc1OCCCOc1ccc([N+](=O)[O-])cc1Cl |  | inconclusive [inhibitor, single point]
6 | Cc1ccc(S(=O)(=O)Nc2ccc3c(c2)c2c(n3S(=O)(=O)c3ccc(C)cc3)CCCC2=O)cc1 |  | inconclusive [inhibitor, single point]
7 | Cc1ccc(NC(=S)NC(C)CCc2ccccc2)cc1C (stereo not drawn) |  | inconclusive [inhibitor, single point]
8 | CCN(CC)CCSc1nnc2c3ccccc3n(CCc3ccccc3)c2n1 |  | inconclusive [inhibitor, partial curve]
9 | Cn1cccc1/C=N/NC(=O)CSc1nc2ccccc2[nH]1 | inactive: 30.3% | 
10 | CN1CCC(Oc2ccccc2Sc2ccccc2)CC1 |  | inconclusive [inhibitor, single point]
11 | COc1cc(NC(=O)Cc2ccc(OC)c(S(=O)(=O)N3CCOCC3)c2)c(OC)cc1Cl |  | inconclusive [inhibitor, full curve]
12 | COc1cc(OC)c(OC)cc1/C=N/NC(=O)CCc1c(C)n[nH]c1C | inactive: 13.1% | 
13 | CC1=C(C(=O)OC(C)C)C(c2ccc(N(C)C)cc2)C2=C(CC(C)(C)CC2=O)N1 (stereo not drawn) |  | inconclusive [inhibitor, single point]
14 | C=C(C)CN(CC)C(=O)CSc1nc2ncc(Cl)cc2[nH]1 |  | inconclusive [inhibitor, partial curve]
15 | Cc1cccnc1NC(=O)c1cccc(S(=O)(=O)NCc2ccccc2)c1 |  | inconclusive [inhibitor, single point]
16 | COC(=O)c1cccc(C23CC4(C2)[C@H](CN(C)[C@@H]4c2ccccc2)C3c2ccc(C(F)(F)F)cc2)c1 (stereo partly drawn) |  | active: 9.28 µM
17 | COc1cccc(C(=O)O[C@@H]2[C@H](Cc3ccccc3)NS(=O)(=O)[C@H]3C[C@@H]4C=C[C@]23O4)c1 |  | inconclusive [inhibitor, partial curve]
18 | OC1(c2ccc(Br)cc2)CCN(Cc2cccc(Br)c2)CC1 |  | inconclusive [inhibitor, full curve, poor fit]
19 | O=C(Nc1nc2cc3c(cc2s1)OCO3)c1cccc(N2C(=O)CCC2=O)c1 | inactive: 61% | 
20 | Cc1cccc(NC(=O)CSCC(=O)N(C)CCOc2ccc(Cl)cc2)c1 |  | inconclusive [inhibitor, single point]
21 | Cc1ccc(N2CC(NS(=O)(=O)c3cccs3)CC2=O)cc1 (stereo not drawn) | inactive: -12.8% | 
22 | O=C(c1ccc2c(=O)n(Cc3ccc4c(c3)OCO4)c(=S)[nH]c2c1)N1CCC2(CC1)OCCO2 |  | inconclusive [inhibitor, single point]
23 | N#Cc1c(N)n(-c2ccccc2N)c2nc3ccccc3nc12 | inactive: -13.5% | 

Row | SMILES | activity change, negative = inhibition | Potency
24 | Cc1ccc(S(=O)(=O)NC(=O)Nc2ncc3c(n2)CC(c2ccco2)CC3=O)cc1 (stereo not drawn) | inactive: 11.4% | 
25 | COc1ccccc1N1CCN(S(=O)(=O)CCNC(=O)Cc2ccc(F)cc2)CC1 |  | inconclusive [inhibitor, single point]
26 | Cc1cc(C(=O)NC2CCCCC2)c(C)n1-c1ccc(F)cc1 | inactive: 50.5% | 
27 | Cc1csc2c(=O)sc(NC(=O)c3ccc(F)cc3Cl)nc12 | inactive: 8.66% | 
28 | CC[C@@H](C)C(NC(=O)OC(C)(C)C)c1cn([C@@H](CCC(=O)OC(C)(C)C)C(=O)N2CCN(C(=O)OC(C)(C)C)CC2)nn1 (stereo partly drawn) |  | inconclusive [inhibitor, full curve, poor fit]
29 | Cc1ccc2c(c1)N(CC(=O)OC(CC(C)C)C(=O)NC1CCCC1)C(=O)CO2 (stereo not drawn) |  | inconclusive [inhibitor, partial curve, poor fit]
30 | O=C(Nc1ccc2oc(=O)ccc2c1)c1ccc(-c2cccc(Cl)c2)o1 |  | active: 10.4 µM
31 | Cc1cccc(N(CC(=O)NCc2ccc(F)cc2)C(=O)c2csnn2)c1C |  | inconclusive [inhibitor, single point]
32 | O=C1S/C(=C\C=C\c2ccco2)C(=O)N1c1ccc(O)cc1 | inactive: 112% | 
33 | CCCc1ccc2oc(C(=O)N3CCC(COC)C3)c(C)c2c1 (stereo not drawn) | inactive: 78.1% | 
34 | CCN(CC)S(=O)(=O)c1ccc(C(=O)OCC(=O)NC2CCCC2)cc1 | inactive: 12.7% | 
35 | CCc1nnc(NC(=O)CSc2nnc(CNC(=O)c3cc(OC)c(OC)c(OC)c3)o2)s1 |  | inconclusive [inhibitor, full curve, poor fit]
36 | O=C(N1CCN(c2ccccc2)CC1)C12CC3CC(CC(C3)C1)C2 |  | inconclusive [inhibitor, partial curve, poor fit]
37 | COc1cc2c(cc1NC(=S)Nc1cccc(C)c1)oc1ccccc12 | inactive: 40.4% | 
38 | COc1ccc(-c2noc(COc3ccc4ccccc4c3Br)n2)cc1OC | inactive: 19.2% | 
39 | Cc1ccc2c(c1)Oc1ccc(NC(=O)CCCl)cc1C(=O)N2 |  | inconclusive [inhibitor, partial curve]
40 | COc1cccc2sc(Nc3nc(C)c(C(C)=O)s3)nc12 |  | inconclusive [inhibitor, single point]
41 | COCc1ccc(-c2c(-c3cccc(OC)c3)sc3ccc(OC)cc23)cc1 |  | inconclusive [inhibitor, single point]
42 | Cc1cccc(C(=O)NCC(=O)N2CCN(S(=O)(=O)c3ccc4c(c3)OCCO4)CC2)c1 |  | inconclusive [inhibitor, single point]
43 | Cc1cc(C(=O)OCC(=O)Nc2ccc(F)cc2)c(C)o1 | inactive: 19.9% | 
44 | Cc1ccc(CS(=O)(=O)CC(C)(O)c2ccc(Cl)cc2)cc1 (stereo not drawn) | inactive: -15.2% | 
45 | CCN=C1S/C(=C\c2sccc2C)C(=O)N1CC | inactive: 47.4% | 
46 | CCc1c(C#N)c(SCCC(=O)Nc2cccc(OC)c2)nc2c1C(=O)CC(C)(C)C2 |  | inconclusive [inhibitor, partial curve]

Row | SMILES | activity change, negative = inhibition | Potency
47 | CCc1ccc2nc(/N=C(\N)NC(=O)c3ccccc3)nc(C)c2c1 |  | active: 9.28 µM
48 | CCOC(=O)[C@H]1[C@H]2COc3ccc(Br)cc3[C@@H]2N2C(=O)c3ccc(Cl)cc3NC(=O)[C@@]12C |  | active: 9.28 µM
49 | CC1(C)c2ccccc2N2CC(=O)N[C@@]21/C=C/C=C/c1ccccc1 |  | inconclusive [inhibitor, single point]
50 | CCN(CC)C(=O)C(=O)c1c(-c2ccccc2)[nH]c2ccccc12 |  | inconclusive [inhibitor, partial curve, poor fit]
51 | O=C(NNC(=O)c1cc(Cl)ccc1O)c1cccs1 | inactive: 63.5% | 
52 | CCOC(=O)C1=C(c2ccccc2)Nc2ncnn2C1c1cccc(OC)c1OC (stereo not drawn) |  | inconclusive [inhibitor, partial curve, poor fit]
53 | O=C(C1=C[C@@H](C2CCCCC2)C[C@@H](OCCCCO)O1)N1CCN(Cc2ccccc2)CC1 |  | inconclusive [inhibitor, full curve, poor fit]
54 | CCC(C)[C@@H](CN)NCC1(c2ccccc2)CC1 (stereo partly drawn) |  | inconclusive [inhibitor, single point]
55 | O=C(OCc1nnc(-c2ccccc2)o1)c1ccc(Cl)cc1 | inactive: 12.8% | 
56 | Cc1cc(C(=O)COc2cccc(-n3cnnn3)c2)c(C)n1-c1ccccc1 |  | inconclusive [inhibitor, single point]
57 | O=C(C[n+]1cccc(CNC(=O)c2ccc(OC(F)F)cc2)c1)Nc1cc(C(F)(F)F)ccc1Cl |  | active: 1.65 µM
58 | Cc1ccc(NC(=O)c2ccc([N+](=O)[O-])o2)cc1C |  | inconclusive [inhibitor, full curve, poor fit]
59 | COc1ccc(S(=O)(=O)N2CCOCC2)cc1NC(=O)CN(C)Cc1c(F)cccc1Cl |  | active: 7.38 µM
60 | COc1ccc(CCN(C(=O)c2cccc(F)c2)C2CC(=O)N(c3ccc(OC)cc3)C2=O)cc1 (stereo not drawn) |  | inconclusive [inhibitor, partial curve]
61 | COc1ccc(C(=O)Oc2cc(C)c(CN3CCOCC3)cc2C)cc1OC |  | inconclusive [inhibitor, partial curve, poor fit]
62 | CCN1C(=O)c2cccc3c(S(=O)(=O)N4CCC(C)CC4)ccc1c23 |  | inconclusive [inhibitor, single point]
63 | O=C(CCNC(=O)c1ccc(Br)cc1)Nc1ccc(S(=O)(=O)Nc2ncccn2)cc1 | inactive: -6.38% | 
64 | CCOC(=O)C(C)Sc1nc2c(c(=O)[nH]c(=O)n2C)n1C/C=C(/C)Cl (stereo not drawn) |  | inconclusive [inhibitor, partial curve, poor fit]
65 | CC1CC(C)CN(S(=O)(=O)c2ccc(C(=O)N3CCOCC3)cc2)C1 (stereo not drawn) |  | inconclusive [inhibitor, single point]
66 | CC(=O)Nc1ccc(S(=O)(=O)N2CCCN(S(=O)(=O)c3ccc(NC(C)=O)cc3)CC2)cc1 |  | inconclusive [inhibitor, partial curve, poor fit]
67 | COC(=O)C(C)Sc1ccc2nnc(-c3ccc(F)cc3)n2n1 (stereo not drawn) | inactive: -6.88% | 
68 | O=C(CSc1ccc(Cl)cc1)N/N=C/c1ccc([N+](=O)[O-])o1 |  | inconclusive [inhibitor, single point]
